In all, about 110,000 compounds were measured (“z-score”: median about -0.1, highest 2% from about 2 on). The list shows a part of the results.

This experiment has as its target Metabotropic glutamate receptor 8 (Rattus norvegicus) (UniProt P70579). The experiment can be described thus: rat mGluR8 modulators via GIRK flux, primary screen, cell-based, thallium flux, HTS (AID 488969). The conditions noted are these: HEK293 rat mGluR8, GIRK (G protein-gated inwardly rectifying potassium channel) thallium flux, FluoZin2; at 10 µM; stronger effect = higher value; submaximal glutamate (EC20) added with thallium.
UniProt P70579, sequence (P70579 whole entry, looked up): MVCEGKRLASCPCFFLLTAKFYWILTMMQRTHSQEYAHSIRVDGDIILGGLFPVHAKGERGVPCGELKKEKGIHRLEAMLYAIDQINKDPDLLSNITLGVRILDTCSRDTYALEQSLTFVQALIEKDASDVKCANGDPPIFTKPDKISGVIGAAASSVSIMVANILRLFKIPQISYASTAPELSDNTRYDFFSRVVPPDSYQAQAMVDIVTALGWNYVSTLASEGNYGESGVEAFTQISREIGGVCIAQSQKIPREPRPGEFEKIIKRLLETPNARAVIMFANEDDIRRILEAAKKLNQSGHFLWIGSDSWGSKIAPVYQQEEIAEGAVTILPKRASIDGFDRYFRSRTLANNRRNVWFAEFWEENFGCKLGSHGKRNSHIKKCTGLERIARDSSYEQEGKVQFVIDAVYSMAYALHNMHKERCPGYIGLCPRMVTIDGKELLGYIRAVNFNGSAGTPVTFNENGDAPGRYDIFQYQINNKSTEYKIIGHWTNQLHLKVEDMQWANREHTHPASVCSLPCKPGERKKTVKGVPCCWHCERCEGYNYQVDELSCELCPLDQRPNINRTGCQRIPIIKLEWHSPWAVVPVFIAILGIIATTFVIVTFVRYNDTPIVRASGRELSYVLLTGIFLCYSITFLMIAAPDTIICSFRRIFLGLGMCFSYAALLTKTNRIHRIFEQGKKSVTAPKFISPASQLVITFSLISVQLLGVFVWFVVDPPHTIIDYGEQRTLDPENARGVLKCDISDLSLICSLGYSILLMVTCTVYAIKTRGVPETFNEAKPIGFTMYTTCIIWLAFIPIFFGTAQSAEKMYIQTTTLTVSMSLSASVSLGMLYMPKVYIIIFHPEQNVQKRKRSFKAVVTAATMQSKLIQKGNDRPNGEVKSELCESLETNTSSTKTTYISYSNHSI
Regarding `COc1ccc2nc(NC(=O)C3CCCN(S(=O)(=O)c4cccc5nsnc45)C3)sc2c1` (stereo unspecified), the z-score is -0.156.
With `CC1=NN(c2ccccc2)C(=O)C1(C)[N+](=O)[O-]` (stereo unspecified) the figure was -0.504.
With `COc1ccccc1C(=O)Nc1nnn(C)n1` the figure was -0.546; with `COC(=O)C1C(=O)c2c(n[nH]c2C)CC1(C)C` (stereo unspecified), -0.0844.
Then `O=S(=O)(c1ccc(NC(=S)NCCc2ccccc2)cc1)N1CCOCC1`, with -0.502; and `O=C(NCCNc1ccc([N+](=O)[O-])cc1C(F)(F)F)c1cccc(F)c1`, with -0.7; and `Cc1nc2sccn2c(=O)c1Cl`, with 0.324.
With `Cc1onc(-c2c(F)cccc2Cl)c1C(=O)NCCc1ccc(S(N)(=O)=O)cc1`, the z-score worked out at 0.0213.
As to `O=C(COC(=O)c1ccccc1OCc1ccccc1Cl)NC1CC1`, the z-score was -0.211.
Then `COCCCN(C(=O)Nc1cccc(Cl)c1)C(C)c1ccccn1` (stereo unspecified), with -0.414; and `Cc1ccc(CNC(=O)c2ccccc2N)cc1`, with 0.0428; and `O=C(CN1C(=O)C2C3C=CC(C3)C2C1=O)NCc1ccc2c(c1)OCO2` (stereo unspecified), with -0.188.
Then `O=C1CC(Nc2ccc(N3CCOCC3)cc2)C(=O)N1c1ccccc1F` (stereo unspecified), with -0.0538.
Then `Cc1cc(C)c2[nH]c(=O)c(=O)[nH]c2c1`, with -0.178; and `COc1ccc(Cl)cc1NC(=S)NCc1ccc(S(N)(=O)=O)cc1`, with 0.19.
Turning to `Cc1ccc(-c2ccc(CCC(=O)O)n2CC2CCCO2)cc1` (stereo unspecified), the z-score was -0.326.
Then `CC(=O)OC(C(=O)NCc1ccc(F)cc1)c1ccccn1` (stereo unspecified), with 0.383; and `C=CCn1c(SCc2ccc(C#N)cc2)nnc1-c1cccc(Cl)c1`, with 0.08; and `Cc1ccc2c(c1C)NC(C)CC2C` (stereo unspecified), with 0.329.
With `COc1ccc(CCN2C(=O)C3C4C=CC(C4)C3C2=O)cc1OC` (stereo unspecified) the figure was 0.0364; with `COc1ccc(CC(=O)NC(c2ccccc2)c2ccccc2)cc1S(=O)(=O)N1CCOCC1`, -0.307; with `CN(C)c1nc2n(c(=O)n1)C(C#N)CS2` (stereo unspecified), 1.73.
With `Cc1ccc(Nc2c([N+](=O)[O-])c(=O)n(C)c3ccccc23)cc1C` the figure was -0.846.
On to `Clc1cccc(Oc2ncc(CN3CCOCC3)s2)c1`, for which the z-score was -0.0832.
With `O=C(NCCCn1ccnc1)/C(=C\c1cccnc1)NC(=O)c1ccccc1Br` the figure was -0.132.
Then `CC(C)CNC(=O)COC(=O)c1c2c(nc3ccccc13)/C(=C/c1cccs1)CC2`, with -0.0542; and `COc1ccc(/C=N/NC(=O)CN(Cc2ccccc2)S(=O)(=O)c2ccc3c(c2)OCCO3)cc1`, with -0.12; and `CCCSc1nc(=O)n2cc(C)ccc2n1`, with 0.0306.
Then `COc1ccc(C(=O)Nc2ccc(S(=O)(=O)Nc3nccnc3OC)cc2)cc1`, with 0.0667.
As to `Cc1nc2ccccn2c1C(=O)NCCCN1CCOCC1`, the z-score was 0.145.
Then `COc1ccc(CC(=O)Nc2cc(C)ccn2)cc1`, with 0.301.
Take `Cc1nn(Cc2ccc(Cl)cc2)c(C)c1NC(=O)c1cc(-c2ccc3c(c2)OCO3)on1`: the z-score was -0.856.
Then `O=c1c2c(-c3cccs3)csc2ncn1-c1ccc(Br)cc1`, with -0.297; and `O=C(CCCC(=O)NC1CCCC1)NC1CCCC1`, with -0.0851.
Then `CC1(C)Cc2c(c(N3CCOCC3)nc3sc4c(N5CCOCC5)nnnc4c23)CS1`, with 0.0342; and `Cc1oc2c(c1C(=O)NCCO)CCCC2`, with -0.0774; and `O=C(NCCc1c[nH]c2ccccc12)C1CCC(Cn2c(=S)[nH]c3ccccc3c2=O)CC1` (stereo unspecified), with -0.106.
With `Cc1cccc(Cc2cnc(NC(=O)CN3C(=O)/C(=C/c4ccccc4)SC3=S)s2)c1` the figure was -0.269; with `O=C(N/N=C/c1c(Nc2cccc(C(F)(F)F)c2)nc2ccccn2c1=O)c1ccccc1[N+](=O)[O-]`, -0.178.
For the molecule `Cc1nn(Cc2ccc(F)cc2)c(C)c1NC(=O)c1cnn2c1NC(c1ccccc1)CC2C(F)(F)F` (stereo unspecified), the z-score is -1.24.
Take `COC(=O)c1c(NC(=O)C2CCCO2)sc2c1CCC2` (stereo unspecified): the z-score was -0.297.
With `O=C(CSc1n[nH]c(-c2cccnc2)n1)Nc1ccccc1` the figure was -0.272; with `O=P(CCC(F)(F)F)(CCC(F)(F)F)CCC(F)(F)F`, 0.101; with `CCc1cccc(CC)c1NC(=O)COC(=O)c1ccc(F)c(S(=O)(=O)N(CC)CC)c1`, -0.307.
With `COc1ccc(NC(=O)Nc2ccc3nsnc3c2)cc1` the figure was -0.43.
Then `Cn1cccc1C(=S)N=P(C1CCCCC1)(N1CCOCC1)N1CCOCC1`, with 0.184; and `CCc1ccc(OCC(=O)OC2CCS(=O)(=O)C2)cc1` (stereo unspecified), with -0.358.
As to `CC(=O)N1CCN(C(=O)c2ccc(-n3c(C)ccc3C)cc2)CC1`, the z-score was -0.0344.
Then `CCc1ccc(OCCCC(=O)O)c(Br)c1`, with -0.107; and `O=C(Nc1nc(-c2ccccc2)cs1)c1cccs1`, with -0.61; and `CCOC(=O)c1ccc(NC(=O)COC)cc1`, with -0.598.
With `CCOC(=O)N1CCC(NC(=O)CN(C)S(=O)(=O)c2cc3c(cc2Cl)NC(=O)CO3)CC1` the figure was -0.235; with `CCn1cc([N+](=O)[O-])c(C(=O)N2N=C(c3ccc4ccccc4c3)CC2c2ccccc2O)n1` (stereo unspecified), -0.147; with `Cn1c(SCC(=O)N2CCCc3ccccc32)nnc1-c1c[nH]c2ccccc12`, 1.79.
For the molecule `Cc1cccc(CC(=O)N2CCN=C2SCc2ccc([N+](=O)[O-])cc2)c1`, the z-score was -0.128.
With `CC(C(=O)N(C)C)N(C#N)c1nc(N(C)C)nc(N(C)C)n1` (stereo unspecified) the figure was -0.636; with `C=CC(C)N1C(=O)S/C(=C\c2ccc(N3CCOCC3)cc2C)C1=O` (stereo unspecified), -0.201; with `Cc1cc2c(c(=O)n1Cc1ccco1)C(c1cccnc1)C(C#N)=C(N)O2` (stereo unspecified), -0.157.
As for `CCOC(=O)c1cccc(NC(=O)COc2ccc([N+](=O)[O-])cc2)c1`, the z-score is -0.726.
Then `Cc1nn(-c2ccc(F)cc2)c2sc(C(=O)O)cc12`, with -0.216; and `COCCNC(=O)c1c(N)n(/N=C/c2cccs2)c2nc3ccccc3nc12`, with -0.00344.
Then `COc1ccccc1NC(=O)c1ccc(NS(=O)(=O)c2ccc(F)c(Cl)c2)cc1`, with -0.388; and `Cc1ccc(Nc2ccc(C(=O)O)cc2N)cc1`, with -0.183.
Regarding `Cc1cnc(NC(=O)Cc2c[nH]c3ccccc23)s1`, the z-score was -0.194.
Then `COc1ccc(-c2noc(C)c2-c2ccc3ccccc3n2)c(O)c1`, with -0.699; and `COc1cc(-c2ncc3ccccn23)cc(OC)c1OC`, with -0.125.
Then `CCOC(=O)c1c(NC(C)=O)sc2c(OC)c(Br)ccc12`, with -0.0923; and `NS(=O)(=O)c1ccc(CNC(=O)/C=C/c2ccc(Cl)c(Cl)c2)cc1`, with -0.113.
For `COc1ccc(OCCNc2cc(N3CCOCC3)ccc2[N+](=O)[O-])cc1`, the z-score was -0.279.
With `CCc1ccc(C(C)NC(=O)c2ncn[nH]2)cc1` (stereo unspecified) the figure was 0.153; with `Clc1cccc(-c2cc3nc4c(c(N5CCNCC5)n3n2)CCCC4)c1`, 2.71.

For the origin of these results see PubChem BioAssay AID488969 (Vanderbilt High Throughput Screening Facility, 2010).
